Data published in patent US20260216175A1, “COMPLEMENT INHIBITION” (Apellis Pharmaceuticals, Inc., priority 2023, published 2026).

target: C3 convertase (CVF:Bb) (Homo sapiens, UniProt P00751); assay: biochemical

Point of comparison: COc1cc(C)c2[nH]ccc2c1CN1CCN(CC(F)(F)F)CC1c1ccc(C(=O)O)c(F)c1 (centres unmarked), IC50 681 nM. Against it:
- COc1cc(C)c2[nH]ccc2c1CN1CC2CC(F)(F)CCN2CC1c1ccc(C(=O)O)cc1 (centres unmarked) — 2.1-fold higher, 1410 nM
- COc1cc(C)c2[nH]ccc2c1CN1C[C@@H]2C[C@@H]3C[C@@H]3N2C[C@@H]1c1ccc(C(=O)O)cc1 — 3.1-fold higher, 2080 nM
- COc1cc(C)c2[nH]ccc2c1CN1C[C@@H]2C[C@@H](F)CN2CC1c1ccc(C(=O)O)cc1 (some centres unmarked) — 17-fold higher, 11700 nM
- COc1cc(C)c2[nH]ccc2c1CN1C[C@@H]2CCCCN2C[C@H]1c1ccc(C(=O)O)cc1 — 3.8-fold higher, 2610 nM
- COc1cc(C)c2[nH]ccc2c1CN1C[C@@H]2C[C@H]3C[C@H]3N2C[C@@H]1c1ccc(C(=O)O)cc1 — 18-fold higher, 12000 nM
- COc1cc(C)c2[nH]ccc2c1CN1C[C@H]2CCCCN2C[C@H]1c1ccc(C(=O)O)cc1 — 30-fold lower, 22.9 nM
- COc1cc(C)c2[nH]ccc2c1CN1C[C@H]2CCCCN2C[C@@H]1c1ccc(C(=O)O)cc1 — 6.2-fold higher, 4190 nM
- COc1cc(C)c2[nH]ccc2c1CN1C[C@H]2C[C@H](F)CN2C[C@H]1c1ccc(C(=O)O)cc1 — 3.1-fold lower, 223 nM
- COc1cc(C)c2[nH]ccc2c1CN1C[C@H]2C[C@H](F)CN2C[C@@H]1c1ccc(C(=O)O)cc1 — 30-fold higher, 20700 nM
- COc1cc(C)c2[nH]ccc2c1CN1C[C@@H]2C[C@@H](F)CN2C[C@H]1c1ccc(C(=O)O)cc1 — 28-fold higher, 19000 nM
- COc1cc(C)c2[nH]ccc2c1CN1C[C@H]2CCN2C[C@@H]1c1ccc(C(=O)O)cc1 — 41-fold higher, 28100 nM
- COc1cc(C)c2[nH]ccc2c1CN1CCN(C)CC[C@H]1c1ccc(C(=O)O)c(N)c1 — within 1.5-fold, 691 nM
- COc1cc(C)c2[nH]ccc2c1CN1C[C@@H]2CCN2C[C@@H]1c1ccc(C(=O)O)cc1 — 65-fold higher, 44200 nM
- COc1cc(C)c2[nH]ccc2c1CN1C[C@H]2C[C@H]3C[C@H]3N2C[C@H]1c1ccc(CO)cc1 — 110-fold higher, 71900 nM
- COc1cc(C)c2[nH]ccc2c1CN1CCN2CCCC2C1c1ccc(C(=O)O)cc1 (centres unmarked) — within 1.5-fold, 835 nM
- COc1cc(C)c2[nH]ccc2c1CN1CC[C@H]2CCCN2CC1c1ccc(C(=O)O)cc1 (some centres unmarked) — 3.5-fold higher, 2370 nM
- COc1cc(C)c2[nH]ccc2c1CN1CCN(CC(F)F)CC1c1ccc(C(=O)O)n2ccnc12 (centres unmarked) — 12-fold higher, 8140 nM
- COc1cc(C)c2[nH]ccc2c1CN1C[C@@H]2C[C@H](F)CN2C[C@H]1c1ccc(C(=O)O)cc1 — within 1.5-fold, 574 nM
- COc1cc(C)c2[nH]ccc2c1CN1CCN(CC(F)F)CC1c1ccc(C(N)=O)c(O)n1 (centres unmarked) — 15-fold higher, 10200 nM
- Cc1cc(OC(F)F)c(CN2CCN(CC(F)F)C[C@@H]2c2ccc(C(=O)O)c(N)c2)c2cc[nH]c12 — 160-fold higher, 106000 nM
- Cc1cc(OC(F)F)c(CN2CCN(CC(F)F)C[C@H]2c2ccc(C(=O)O)c(N)c2)c2cc[nH]c12 — 4-fold higher, 2690 nM
- COc1cc(C)c2[nH]ccc2c1CN1CCN(CC(F)F)C[C@H]1c1ccc(C(=O)O)c(O)n1 — 2.7-fold higher, 1840 nM
- COc1cc(C)c2[nH]ccc2c1CN1CCN(CC(F)F)C[C@@H]1c1ccc(C(=O)O)c(O)n1 — 30-fold higher, 20100 nM
- COc1cc(C)c2[nH]ccc2c1CN1CCN(CC(F)F)C[C@H]1c1ccc(C(=O)O)c(OC2COC2)c1 — 3.2-fold higher, 2180 nM
- COc1cc(C)c2[nH]ccc2c1CN1CCN(CCC(F)(F)F)C[C@H]1c1ccc(C(=O)O)c(O)c1 — 14-fold lower, 47.8 nM
- COc1cc(C)c2[nH]ccc2c1CN1CCN(CCC(F)(F)F)C[C@@H]1c1ccc(C(=O)O)c(O)c1 — 9.3-fold higher, 6320 nM
- COc1cc(C)c2[nH]ccc2c1CN1CCN(CCC(F)(F)F)CC1c1ccc(C(=O)O)c(O)c1 (centres unmarked) — 5.8-fold lower, 117 nM
- COc1cc(C)c2[nH]ccc2c1CN1CCN(CC(F)F)CC1c1ccc(C(=O)O)c(O)c1 (centres unmarked) — 2.6-fold lower, 265 nM
- COc1cc(C)c2[nH]ccc2c1CN1CCN(CC(F)(F)F)CC1c1ccc(C(=O)O)c(O)c1 (centres unmarked) — 1.8-fold lower, 385 nM
- COc1cc(C)c2[nH]ccc2c1CN1CCN(CC(F)F)C[C@@H]1c1ccc(C(=O)O)c(CO)c1 — 6.2-fold higher, 4190 nM
- COc1cc(C)c2[nH]ccc2c1CN1CCN(CC(F)F)C[C@H]1c1ccc(C(=O)O)c(CO)c1 — 2.6-fold lower, 262 nM
- COc1nc(C)c2[nH]ccc2c1CN1CCN(CC(F)F)CC1c1ccc(C(=O)O)c(C)c1 (centres unmarked) — 34-fold higher, 22900 nM
- COc1cc(C)c2[nH]ccc2c1CN1CCN(CC(F)F)C[C@@H]1c1ccc(C(=O)O)c(C(F)F)c1 — 2-fold higher, 1360 nM
- COc1cc(C)c2[nH]ccc2c1CN1CCN(CC(F)F)C[C@H]1c1ccc(C(=O)O)c(C(F)F)c1 — 2.1-fold lower, 324 nM
- COc1cc(C)c2[nH]ccc2c1CN1CCN(CC(F)F)CC1c1ccc(C(=O)O)c(C(F)F)c1 (centres unmarked) — within 1.5-fold, 857 nM
- COc1cc(C)c2[nH]ccc2c1CN1CCCN(CC(F)(F)F)C[C@@H]1c1ccc(C(=O)O)cc1 — within 1.5-fold, 973 nM
- COc1cc(C)c2[nH]ccc2c1CN1CCCN(CC(F)(F)F)C[C@H]1c1ccc(C(=O)O)cc1 — 20-fold lower, 33.5 nM
- COc1cc(C2CN(CC(F)(F)F)CCN2Cc2c(OC)cc(C)c3[nH]ccc23)ccc1C(=O)O (centres unmarked) — within 1.5-fold, 691 nM
- COc1cc(C2CN(C)CCN2Cc2c(OC)cc(C)c3[nH]ccc23)ccc1C(=O)O (centres unmarked) — 1.6-fold lower, 415 nM
- COc1cc(C)c2[nH]ccc2c1CN1CCN(CC(F)F)CC1c1ccc(C(=O)O)c(CO)c1 (centres unmarked) — 2.4-fold lower, 283 nM
- COc1cc(C)c2[nH]ccc2c1CN1CCN(CC(F)F)C[C@@H]1c1ccc(C(=O)O)c(N)c1 — within 1.5-fold, 505 nM
- COc1cc(C)c2[nH]ccc2c1CN1CCN(CC(F)F)C[C@H]1c1ccc(C(=O)O)c(N)c1 — 12-fold lower, 58.2 nM
- COc1cc(C)c2[nH]ccc2c1CN1CCN(C)CC[C@H]1c1ccc(C(=O)NS(C)(=O)=O)cc1 — 9-fold lower, 76 nM
- COc1cc(C)c2[nH]ccc2c1CN1CCN(CC(F)(F)F)CC1c1ccc(C(=O)O)c(C)c1 (centres unmarked) — within 1.5-fold, 888 nM
- COc1cc(C)c2[nH]ccc2c1CN1CCN(C)CC1c1ccc(C(N)=O)c(F)c1 (centres unmarked) — 3.4-fold higher, 2330 nM
- COc1cc(Cl)c2[nH]ccc2c1CN1CCN(CC(F)F)CC1c1ccc(C(=O)O)c(C)c1 (centres unmarked) — 14-fold higher, 9340 nM
- COc1cc(C)c2[nH]ccc2c1CN1CCN(C)CC1c1ccc(C(=O)O)c(O)c1 (centres unmarked) — 2.5-fold lower, 276 nM
- COc1cc(C)c2[nH]ccc2c1CN1CCN(C)CC1c1ccc(C(=O)O)c(C)c1 (centres unmarked) — 1.7-fold higher, 1160 nM
- COc1cc(C)c2[nH]ccc2c1CN1CCN(C)CC1c1ccc(C(=O)O)c(F)c1 (centres unmarked) — 1.8-fold lower, 383 nM
- COc1cc(C)c2[nH]ccc2c1CN1CCN(CC(F)F)CC1c1ccc(C(=O)O)c(N)c1 (centres unmarked) — 6.6-fold lower, 103 nM
- CCc1cc([C@H]2CN(CC(F)F)CCN2Cc2c(OC)cc(C)c3[nH]ccc23)ccc1C(=O)O — 1.8-fold lower, 388 nM
- CCc1cc([C@@H]2CN(CC(F)F)CCN2Cc2c(OC)cc(C)c3[nH]ccc23)ccc1C(=O)O — 70-fold higher, 47900 nM
- CCc1cc(C2CN(CC(F)F)CCN2Cc2c(OC)cc(C)c3[nH]ccc23)ccc1C(=O)O (centres unmarked) — within 1.5-fold, 580 nM
- COc1cc(C)c2[nH]ccc2c1CN1CCCN(CC(F)(F)F)CC1c1ccc(C(=O)O)cc1 (centres unmarked) — 13-fold lower, 53.2 nM
- COc1cc(C)c2[nH]ccc2c1CN1CCCN(CC(F)F)CC1c1ccc(C(=O)O)cc1 (centres unmarked) — 8.2-fold lower, 83.1 nM
- COc1cc(C)c2[nH]ccc2c1CN1CCCN(CCF)CC1c1ccc(C(=O)O)cc1 (centres unmarked) — 2.3-fold lower, 291 nM
- COc1cc(C)c2[nH]ccc2c1CN1CCCN(C)CC1c1ccc(C(=O)O)cc1 (centres unmarked) — 3.3-fold higher, 2260 nM
- COc1cc(C)c2[nH]ccc2c1CN1CCCN(C)C(=O)C1c1ccc(C(=O)O)cc1 (centres unmarked) — 9-fold higher, 6150 nM
- COc1cc(C)c2[nH]ccc2c1CN1CCN(CC(F)(F)F)CCC1c1ccc(C(=O)O)cc1 (centres unmarked) — 14-fold higher, 9470 nM
- COc1cc(C)c2[nH]ccc2c1CN1CCN(C)CC[C@H]1c1ccc(C(=O)O)cc1 — 9.7-fold lower, 70.1 nM
- COc1cc(C)c2[nH]ccc2c1CN1CCN(C)CC[C@@H]1c1ccc(C(=O)O)cc1 — 4.4-fold higher, 3010 nM
